Assay [1] concerns the target T1, CFTR peptide 493-L, biotinylated (library form) (UniProt P13569).
T1 sequence (peptide, N-terminal biotin): GSGSGRISFCSQFSWIMPG
Kind of assay: ELISA; library screen: biotinylated 15-mer peptides (5 µM) immobilised on streptavidin plates; 2 μM His-tagged chaperone, 45 min at room temperature; HSC70 in buffer G with 1 mM ATP, DJA1 and DJA2 in buffer H without nucleotide; detection by His-Probe-HRP; both purified. On the technique in general: ELISA stands for enzyme-linked immunosorbent assay.

Sequences of proteins named here, by UniProt entry; tags and fusion partners are left off. A change or cut given only in a name is not applied to a line headed by its entry.
UniProt P13569: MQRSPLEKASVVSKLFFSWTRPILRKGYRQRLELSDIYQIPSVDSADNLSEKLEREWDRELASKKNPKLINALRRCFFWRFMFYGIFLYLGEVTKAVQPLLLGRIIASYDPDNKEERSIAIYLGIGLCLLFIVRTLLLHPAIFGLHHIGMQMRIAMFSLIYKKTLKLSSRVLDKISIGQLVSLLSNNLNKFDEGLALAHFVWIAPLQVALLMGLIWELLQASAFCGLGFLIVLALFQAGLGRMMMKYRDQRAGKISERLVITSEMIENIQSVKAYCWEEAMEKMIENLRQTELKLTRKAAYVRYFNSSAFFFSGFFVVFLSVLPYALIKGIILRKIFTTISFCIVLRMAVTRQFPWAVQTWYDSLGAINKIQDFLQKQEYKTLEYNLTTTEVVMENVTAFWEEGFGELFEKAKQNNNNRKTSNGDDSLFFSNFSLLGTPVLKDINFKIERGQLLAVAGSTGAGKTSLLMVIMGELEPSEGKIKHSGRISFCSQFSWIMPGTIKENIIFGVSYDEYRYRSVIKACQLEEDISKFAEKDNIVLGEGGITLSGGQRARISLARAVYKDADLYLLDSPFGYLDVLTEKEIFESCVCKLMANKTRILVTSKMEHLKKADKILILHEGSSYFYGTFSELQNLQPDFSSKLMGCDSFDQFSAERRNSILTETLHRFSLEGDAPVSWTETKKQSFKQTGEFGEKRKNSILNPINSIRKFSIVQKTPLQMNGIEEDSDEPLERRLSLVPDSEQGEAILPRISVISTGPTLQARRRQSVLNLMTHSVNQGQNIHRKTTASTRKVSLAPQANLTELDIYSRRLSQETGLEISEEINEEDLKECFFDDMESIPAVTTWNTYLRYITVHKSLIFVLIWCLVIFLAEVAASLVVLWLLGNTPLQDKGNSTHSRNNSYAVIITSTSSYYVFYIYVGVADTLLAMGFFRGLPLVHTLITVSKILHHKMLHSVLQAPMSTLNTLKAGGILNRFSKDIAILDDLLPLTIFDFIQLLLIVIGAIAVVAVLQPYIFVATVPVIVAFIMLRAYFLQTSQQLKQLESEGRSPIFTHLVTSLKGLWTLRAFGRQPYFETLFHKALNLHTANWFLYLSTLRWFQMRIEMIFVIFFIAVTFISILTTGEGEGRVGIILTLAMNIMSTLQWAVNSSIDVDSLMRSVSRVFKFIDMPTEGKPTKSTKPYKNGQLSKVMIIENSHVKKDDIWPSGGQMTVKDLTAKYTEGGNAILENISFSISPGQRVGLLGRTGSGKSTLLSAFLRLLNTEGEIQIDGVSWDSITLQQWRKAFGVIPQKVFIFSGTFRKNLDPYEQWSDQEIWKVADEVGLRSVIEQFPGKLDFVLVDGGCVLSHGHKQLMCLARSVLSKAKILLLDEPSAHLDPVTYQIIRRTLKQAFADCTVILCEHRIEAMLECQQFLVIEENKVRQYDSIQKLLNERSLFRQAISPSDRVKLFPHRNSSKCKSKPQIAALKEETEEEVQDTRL
UniProt P11142: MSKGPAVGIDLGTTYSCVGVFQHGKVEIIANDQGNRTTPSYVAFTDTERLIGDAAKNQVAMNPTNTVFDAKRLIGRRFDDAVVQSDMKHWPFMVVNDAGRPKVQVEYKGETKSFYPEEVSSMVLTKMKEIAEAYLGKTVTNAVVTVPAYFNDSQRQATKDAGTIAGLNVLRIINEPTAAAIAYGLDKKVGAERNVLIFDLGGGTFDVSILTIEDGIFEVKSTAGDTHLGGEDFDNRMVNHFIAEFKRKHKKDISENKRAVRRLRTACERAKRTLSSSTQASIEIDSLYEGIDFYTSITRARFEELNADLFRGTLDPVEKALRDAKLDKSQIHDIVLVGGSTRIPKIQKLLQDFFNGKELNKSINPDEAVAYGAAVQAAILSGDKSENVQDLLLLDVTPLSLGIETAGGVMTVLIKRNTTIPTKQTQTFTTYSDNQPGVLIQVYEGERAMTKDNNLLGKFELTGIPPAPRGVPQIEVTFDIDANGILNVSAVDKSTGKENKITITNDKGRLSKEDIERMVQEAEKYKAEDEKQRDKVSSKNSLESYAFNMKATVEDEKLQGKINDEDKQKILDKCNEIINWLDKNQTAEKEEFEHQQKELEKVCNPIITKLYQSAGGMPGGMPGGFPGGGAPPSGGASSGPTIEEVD
UniProt P08659: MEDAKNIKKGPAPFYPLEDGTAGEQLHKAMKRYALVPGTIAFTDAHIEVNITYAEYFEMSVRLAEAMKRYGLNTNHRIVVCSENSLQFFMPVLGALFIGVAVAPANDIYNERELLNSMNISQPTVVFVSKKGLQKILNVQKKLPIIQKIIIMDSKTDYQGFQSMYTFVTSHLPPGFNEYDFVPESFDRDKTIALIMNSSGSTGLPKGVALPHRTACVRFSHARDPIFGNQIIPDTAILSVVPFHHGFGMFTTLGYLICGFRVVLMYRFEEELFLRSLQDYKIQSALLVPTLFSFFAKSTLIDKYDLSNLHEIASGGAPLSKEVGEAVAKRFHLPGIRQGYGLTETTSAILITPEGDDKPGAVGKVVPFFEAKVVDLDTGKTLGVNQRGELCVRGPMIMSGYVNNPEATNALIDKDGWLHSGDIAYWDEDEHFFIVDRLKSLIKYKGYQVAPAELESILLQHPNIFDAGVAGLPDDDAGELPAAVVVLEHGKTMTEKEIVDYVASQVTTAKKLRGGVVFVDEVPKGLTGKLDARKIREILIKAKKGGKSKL
UniProt O60884: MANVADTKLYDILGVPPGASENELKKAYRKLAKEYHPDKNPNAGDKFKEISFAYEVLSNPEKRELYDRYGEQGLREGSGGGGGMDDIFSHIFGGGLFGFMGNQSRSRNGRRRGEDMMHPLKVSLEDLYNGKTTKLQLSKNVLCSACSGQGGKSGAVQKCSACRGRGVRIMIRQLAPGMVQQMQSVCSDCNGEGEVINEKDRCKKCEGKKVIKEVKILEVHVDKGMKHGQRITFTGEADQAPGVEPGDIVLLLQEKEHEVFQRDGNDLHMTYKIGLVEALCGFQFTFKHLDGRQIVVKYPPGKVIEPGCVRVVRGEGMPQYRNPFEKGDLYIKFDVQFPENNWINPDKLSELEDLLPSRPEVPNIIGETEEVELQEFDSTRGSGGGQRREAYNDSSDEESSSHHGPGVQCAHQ

In assay [2] the target is T2, CFTR peptide 488-L, biotinylated (library form) (UniProt P13569).
T2 sequence (peptide, N-terminal biotin): GSGSKIKHSGRISFCSQFS
Described as above.

In the next assay the target is Flag-tagged HSC70 (UniProt P11142). Kind of assay: co-IP; refolding reactions (4 μM Flag-HSC70, 4 μM DJA2, ATP, denatured luciferase, with or without 100 μM peptide) stopped at 0 or 15 min with apyrase at 4 °C; FLAG-M2 magnetic beads; Western blot for luciferase; both purified. (Immunoblotting shows a protein as a band on a membrane.)
The target in assay [3] is T3, CFTR peptide 1293-L, biotinylated (library form) (UniProt P13569).
T3 sequence (peptide, N-terminal biotin): GSGSFGVIPQKVFIFSGTF
Kind of assay: ELISA; titration of increasing concentrations of chaperone on immobilised biotinylated peptide; HSC70 with ATP; apparent Kd from linearised binding curves; both purified.

No constants are given. Whether binding was seen depends on the method and setting. Some binding calls cover weakened binding; strength is not graded here.

For “DNAJA1 (DJA1), His-tagged (from UniProt P31689 1-397)”, the binding entry in assay [1] and in assay [2] was “no binding (tested: 2 μM)” throughout.

As to “luciferase, guanidine denatured (from UniProt P08659 1-550) (enzyme)”, the binding entry with Flag-tagged HSC70 is listed as “binds”.

Turning to “DNAJA2 (DJA2), His-tagged (from UniProt O60884 1-412)”, the binding entry in assay [1] and in assay [2] was “no binding (tested: 2 μM)” in each case.

Consider “HSC70 (HSPA8), His-tagged (from UniProt P11142 1-646)”, for which the values for the binding entry in assay [1], in assay [2] and in assay [3] were “no binding (tested: 2 μM)”, “no binding (tested: 2 μM)” and “binds”, respectively.

(Values after article PMC7060200, “Selective Binding of HSC70 and its Co-Chaperones to Structural Hotspots on CFTR” (Scientific Reports, 2020).)
